Data reported in PubChem BioAssay AID1745853 (National Center for Advancing Translational Sciences (NCATS), 2022).
This is one part of the list. These are further read-outs of the screen, such as a control signal, another cell line or another target. No call is given for them.

Experiments:
Assay in all cases: Primary Screen for Target Class Profiling of Small Molecule Inhibitors of Methyltransferases
[1] = target: Glycine N-methyltransferase (Homo sapiens) (UniProt Q14749); settings: purified enzyme, MTase-Glo SAH luminescence; measured here: GNMT inhibition; at 40 µM; stronger effect = lower value
Summary of the method: (§1)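 Each enzyme was reacted with SAM and its substrate, with compounds tested once at 40 uM; SAH formed was read by MTase-Glo luminescence.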

[2] = target: Guanidinoacetate N-methyltransferase (Homo sapiens) (UniProt Q14353); settings: purified enzyme, MTase-Glo SAH luminescence; measured here: GAMT inhibition; at 40 µM; stronger effect = lower value
Summary of the method: as §1

[3] = target: Histamine N-methyltransferase (Homo sapiens) (UniProt P50135); settings: purified enzyme, MTase-Glo SAH luminescence; measured here: HNMT inhibition; at 40 µM; stronger effect = lower value
Summary of the method: as §1

[4] = target: Nicotinamide N-methyltransferase (Homo sapiens) (UniProt P40261); settings: purified enzyme, MTase-Glo SAH luminescence; measured here: NNMT inhibition; at 40 µM; stronger effect = lower value
Summary of the method: as §1

[5] = target: Phenylethanolamine N-methyltransferase (Homo sapiens) (UniProt P11086); settings: purified enzyme, MTase-Glo SAH luminescence; measured here: PNMT inhibition; at 40 µM; stronger effect = lower value
Summary of the method: as §1
% is set by controls: 0 for no effect and ±100 for the full control effect.

| Structure (SMILES) | activity change, negative = inhibition [1] [%] | activity change, negative = inhibition [2] [%] | activity change, negative = inhibition [3] [%] | activity change, negative = inhibition [4] [%] | activity change, negative = inhibition [5] [%] |
| --- | --- | --- | --- | --- | --- |
| CC(=O)N1CCCC1c1nnc2n1CCNC2 (stereo not given) | -7.74 | -8.09 | -8.65 | -8.57 | -17.3 |
| CCc1cccc(N2C(=O)c3cc(-c4ccco4)nn3CC2(C)C(=O)NC2CCCCCC2)c1 (stereo not given) | -5.26 | 1.74 | -2.65 | -8.1 | -3.62 |
| O=C(NCc1ccc(F)cc1)c1ccc2nnc(CC3CC3)n2c1 | -6.56 | -5.74 | -3.12 | -11.3 | -11.4 |
| Cc1noc(C2CC3(CCN(C(=O)Nc4ccccc4)CC3)CN2C)n1 (stereo not given) | -6.75 | -6.87 | -2.16 | -8.7 | -6.85 |
| O=C(C1CCOCC1)N1CCC2(CC1)CC(N1CCCC1)CCO2 (stereo not given) | -5.03 | -0.239 | -7.09 | -5 | -2.96 |
| O=C(NCC1(c2nc(-c3ccccc3)cs2)CCOCC1)c1cccc(-c2noc(C(F)(F)F)n2)c1 | 3.49 | -6.36 | -2.03 | -23.4 | -12.4 |
| CN1CCN(C2=Nc3ccccc3Nc3ccc(Cl)cc32)CC1 | -1.36 | -9.99 | -6.86 | -26.1 | -9.79 |
| CCCN(CCC)CCN1C(=O)c2cc3sc(CC)cc3n2CC1(C)C(=O)NC1CCCCC1 (stereo not given) | 4.26 | 2.03 | -12.5 | 2 | 3.96 |
| CCOC(=O)c1cc2n(n1)CC(C)(C(=O)NC1CCCCCC1)N(c1cc(Cl)ccc1C)C2=O (stereo not given) | -1.11 | 3.74 | -23 | -2.29 | 1.32 |
| COc1ccc(CNC(=O)c2ccc3c(=O)nc4c(-c5ccccc5)n[nH]n4c3c2)cc1 | -12.1 | 0.817 | 3.05 | -13.4 | -3.98 |
| CCc1ccc(NC(=O)CSc2nnc3n(Cc4ccccc4)c(=O)c4ccccc4n23)cc1 | -3.16 | 3.92 | -4.54 | -2.34 | -1.68 |
| NC[C@H]1CCC[C@@H](CNC(=O)[C@@H](Cc2c[nH]c3ccccc23)NC(=O)N2CCC3(C=Cc4ccccc43)CC2)C1 | 1.84 | 4.8 | 2.88 | -17.8 | -2.83 |
| O=C(CSc1nc2ccccc2c(=O)n1-c1ccccc1)Nc1ccc2c(c1)CCC2 | 2.06 | -9.61 | 10.8 | -24 | -4.96 |
| COc1cc2c(Nc3ccc(Br)cc3F)ncnc2cc1OCC1CCN(C)CC1 | -29.1 | -3.02 | -79 | -35 | -18.2 |
| CCN(C(=O)c1cccc(F)c1F)[C@@H]1CCN(c2ncccc2C#N)C[C@H]1O | -1.91 | -5.17 | 0.757 | -8.77 | 10.3 |
| Cc1ccc(CNC(=O)CCc2nnc3n(Cc4ccc(F)cc4)c(=O)c4ccccc4n23)cc1 | -5.86 | -1.71 | 2.25 | 2.49 | -9.68 |
| Cc1ccc(CN2C(=O)c3cc4occc4n3CC2(C)C(=O)NC2CCCC(C)C2C)cc1 (stereo not given) | -3.18 | 2.33 | -6.41 | -9.9 | -8.41 |
| C/C=C(\C)C(=O)OC1C(C)C2(O)C(C=C(CO)CC3(O)C(=O)C(C)=CC32)C2C(C)(C)C12OC(C)=O (stereo not given) | -7.59 | -5.05 | -1.93 | -18.2 | -15.9 |
| O=C(CCn1ccc2cc(S(=O)(=O)N3CCCC3)ccc21)NCc1ccc2c(c1)OCO2 | -11.8 | 0.388 | -2.93 | -22.1 | -4.42 |
| CC(NS(=O)(=O)c1ccc2[nH]c(=O)[nH]c2c1)c1ccccc1 (stereo not given) | 14.8 | 0.992 | 2.6 | 1.47 | 4.35 |
| CC(C)=CCCC1(C)Oc2cc3c(c4c2C2C(O4)C(C)(O)CCC21)CN(C(CCC(=O)O)C(=O)O)C3=O (stereo not given) | 2.56 | 0.095 | 3.42 | -14.7 | 4.28 |

| Structure (SMILES) | activity change, negative = inhibition [1] [%] | activity change, negative = inhibition [2] [%] | activity change, negative = inhibition [3] [%] | activity change, negative = inhibition [4] [%] | activity change, negative = inhibition [5] [%] |
| --- | --- | --- | --- | --- | --- |
| CCOc1ccccc1CN1C(=O)c2nc3ccccc3n2CC1(C)C(=O)NC1CCCC(C)C1C (stereo not given) | 1.98 | 0.351 | 0.674 | -3.65 | -3.72 |
| O=C(CCc1nnc2n(Cc3ccc(F)cc3)c(=O)c3ccccc3n12)N1CCN(C2CCCCC2)CC1 | -4.73 | -0.109 | -6.45 | 1.05 | -2.36 |
| CSc1ccc(-c2nc(CN(C)Cc3cc(C)no3)c(C)o2)cc1 | -3.47 | 0.093 | 0.749 | -3.67 | -10.2 |
| Cn1nc2n(c1=O)CCN(Cc1ccc(Br)s1)CC2 | -2.83 | -1.54 | 1.01 | -4.92 | -0.926 |
| CCCn1c(=O)c2ccc(C(=O)NC(C)CC)cc2n2c(SCC(=O)c3ccc(C)cc3)nnc12 (stereo not given) | 8.91 | 0 | 12.2 | 10.1 | 8.63 |
| COc1ccc(NC(=O)Cn2c(=O)c3cc(Cl)ccc3n3nncc23)cc1 | -3.86 | 3.7 | 5.5 | 3.72 | -2.87 |
| COc1ccc(-c2nnc3n(CCc4ccccc4)c(=O)c4ccccc4n23)c(OC)c1 | 0.404 | -40.4 | 4.91 | 0.659 | -1.74 |
| CS(=O)(=O)N(C1CC1)C1CCOC2(CCN(C(=O)CCC3CCCC3)CC2)C1 (stereo not given) | -0.179 | -0.985 | -0.062 | -1.12 | 0.509 |
| Cc1ccc(CNC(=O)C2(C)Cn3nc(C(=O)NCc4ccccc4C)cc3C(=O)N2C)cc1 (stereo not given) | 4.05 | 0.99 | 5.41 | 5.59 | 3 |
| COc1ccc(OC)c(CCN2C(=O)c3cc4ccccc4n3CC2(C)C(=O)NCCC(C)C)c1 (stereo not given) | 0.341 | 4.93 | 0.24 | -3.3 | -4.03 |
| Cc1noc(C)c1S(=O)(=O)N1CCC(Cc2nc(-c3cccnc3)n[nH]2)C1 (stereo not given) | -7.46 | -6.27 | -15.6 | -17.6 | -7.62 |
| Cc1ccc(C)c(C(=O)CSc2nnc3n(C)c(=O)c4ccc(C(=O)NC5CCCCC5)cc4n23)c1 | -4.3 | 3.56 | 0.295 | 0.404 | 1.99 |
| Cc1noc2c(NCCN(C)C)cc(-c3ccccc3)nc12 | -7 | -5.38 | -9.94 | -19.5 | -7.78 |
| O=C(NCc1ccc(F)c(F)c1)c1ccc2nnc(Cc3ccco3)n2c1 | -26.8 | -19.3 | -8.42 | -22.3 | -34 |
| COCCNC(=O)CCc1nnc2n(Cc3ccc(C)cc3)c(=O)c3ccccc3n12 | 1.15 | 2.25 | 9.92 | 13.5 | 3.26 |
| COC[C@@H]1[C@H](C(=O)N2CCN(c3ccccn3)CC2)CCC(=O)N1C | -5.89 | -11.2 | -2.62 | -15.5 | -10.1 |
| CC(C)C(=O)Oc1ccc(CO)cc1[C@H](CCN(C(C)C)C(C)C)c1ccccc1 | -3.66 | -0.893 | -6.13 | -14.6 | -3.49 |
| CC(C)c1ccc(NC(=O)CN(C)S(=O)(=O)c2ccc3[nH]c4c(c3c2)CCCC4)cc1 | -3.52 | 4.8 | -0.336 | -4.57 | 1.46 |
| Cc1c(C(=O)N2CC[C@@](O)(C3CCOCC3)[C@H](C)C2)n(C)c2c(C)cccc12 | -5.39 | -5.91 | -3.01 | -7.05 | 1.09 |
| CC(C)CCNC(=O)C1(C)Cn2c(cc3occc32)C(=O)N1Cc1ccc(Cl)cc1 (stereo not given) | -2.92 | 0 | 4.42 | 2.18 | 0.271 |
| CCOc1ccc(CNS(=O)(=O)c2cc3[nH]c(=O)[nH]c3cc2C)cc1OC | 14.6 | 0 | 14.4 | 1.87 | 8.12 |

| Structure (SMILES) | activity change, negative = inhibition [1] [%] | activity change, negative = inhibition [2] [%] | activity change, negative = inhibition [3] [%] | activity change, negative = inhibition [4] [%] | activity change, negative = inhibition [5] [%] |
| --- | --- | --- | --- | --- | --- |
| COc1ccccc1CNc1nc2c(-c3cccc(F)c3)nnn2c2ccccc12 | -6.6 | 1.04 | -9.64 | -16.2 | -13.1 |
| Cc1nc2c([nH]1)CCN(C(=O)c1ccc(NC(=O)c3ccccc3-c3ccccc3)cc1)c1ccccc1-2 | 3.92 | -5.66 | 7.72 | -30.4 | 2.06 |
| Cc1cccc(CN2C(=O)c3ccc(-c4ccco4)n3CC2(C)C(=O)NC2CCCCCC2)c1 (stereo not given) | -1.95 | 3.9 | -1.93 | -6.51 | -1.1 |
| C=C1C(=O)O[C@@H]2[C@H]3C(C)=CC(=O)C3=C(C)CC[C@@H]12 | -22.5 | -21.7 | -2.02 | -17.5 | -7.12 |
| Cc1cccc(N2C(=O)c3ccc(-c4ccco4)n3CC2(C)C(=O)NCc2ccccc2)c1C (stereo not given) | -7.57 | 0 | 4.04 | 3.54 | -0.668 |
| c1ccc(-c2nnc([C@H]3CCN(Cc4ccco4)C3)o2)cc1 | -5.4 | -4.31 | -7.91 | -8 | -7.44 |
| CC1(C(=O)NC2CCCCCC2)Cn2c(nc3ccccc32)C(=O)N1Cc1ccccc1 (stereo not given) | -2.4 | -2.88 | -3.7 | -9.94 | -7.47 |
| Cc1ccc(-c2cn3c4c(sc3n2)CCCC4)cc1 | -4.1 | -10.6 | 6.17 | -47.7 | -17.4 |
| Cn1ccc2cc(CCC(=O)NCc3ccncc3)ccc21 | 13.2 | 1.53 | 10.2 | 4.81 | 10.6 |
| Nc1ncnc2c1nc(Cl)n2C1OC2COP(=O)(O)OC2C1O (stereo not given) | -1.88 | 2.23 | -2.8 | -7.48 | 2.71 |
| Cc1[nH]c2ccc(F)cc2c1-c1nc2c3cccnc3c3ncccc3c2[nH]1 | 7.28 | 2.61 | -1.41 | -10.2 | 1.93 |
| CCOc1ccc(NC(=O)NCCc2noc(C)n2)cc1 | -1.94 | -2.53 | 1.25 | -9.31 | 5.87 |
| CC1CCC2(CC1)NC(=O)N(CC(=O)N1CCc3ccccc31)C2=O (stereo not given) | -9.85 | -10.1 | -6.01 | -10.5 | -11.4 |
| COc1cc(Br)c(S(=O)(=O)Nc2ccc(C(F)(F)F)c(O[C@@H]3CCN(C)C3)c2)cc1OC | -7.47 | -10.2 | 0.917 | -21.3 | -6.73 |
| Cc1nsc(NC(=O)NCc2ccccc2OC(F)(F)F)n1 | -7.69 | -11.9 | -1.58 | -6.27 | 5.2 |
| CC(C)(C)N1CC(C(=O)NCCCc2ccccc2F)CC1=O (stereo not given) | 0.766 | 3.81 | 1.24 | 1.1 | 2.03 |
| CN(C)CCNC(=O)c1cc2n(n1)CC(C)(C(=O)NCc1ccc(F)cc1)N(C)C2=O (stereo not given) | 12.3 | 0.03 | 7.97 | 11.6 | 4.95 |
| CCCn1c(=O)c2ccc(Cl)cc2n2c(=O)n(Cc3ccccc3C)nc12 | 3.43 | 6.55 | 3.98 | 3.24 | 3.78 |
| CC(=O)Nc1c2n(c3ccccc13)CC(C)(C(=O)NC1CCCCC1)N(Cc1ccco1)C2=O (stereo not given) | -9.09 | -2.91 | -4.61 | -7.46 | 0.048 |
